Measurements from PubChem BioAssay AID759 (NMMLSC, 2007).
Screen size: about 190,000 compounds; about 270 (0.14%) were called active. This list was built around the results that the source calls inconclusive (neither active nor inactive); the mix of calls is not that of the screen.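 The calls were made as follows: active = GTP binding activity at least 20% away from the 100% baseline, either lowered as inhibitor or raised as activator; inconclusive = flagged as likely green fluorescent, judged across all proteins in the well; inactive = the rest.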

What follows are compounds tested against GTPase HRas (Homo sapiens) (UniProt P01112) (assay: HRas wt fluorescent GTP binding changes, either direction – biochemical, wildtype, bead-based flow cytometry, multiplex, primary screen (AID 759;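 also: 0% = unlabeled GTP competition control and 100% = no-compound control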)). Conditions: GST-Ras wt beads, Bodipy-FL-GTP binding, at 10 µM, actives lie on both sides.
UniProt P01112, sequence (P01112 whole entry, looked up): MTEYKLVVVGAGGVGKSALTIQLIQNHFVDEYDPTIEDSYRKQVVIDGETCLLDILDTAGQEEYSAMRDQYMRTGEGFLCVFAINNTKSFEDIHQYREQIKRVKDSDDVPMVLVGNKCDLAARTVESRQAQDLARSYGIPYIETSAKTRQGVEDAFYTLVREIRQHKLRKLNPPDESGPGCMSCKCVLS

Structure (SMILES) | GTP binding activity
CC(C)(C)C1=Nn2c(nnc2-c2n[nH]c3c2CCC3)SC1 | inconclusive: 95%
Cc1ccc(NC(=O)Cc2ccc(Cl)c(Cl)c2)cc1S(=O)(=O)N(C)C | inconclusive: 104%
O=C(/C=C/Nc1ccc(Oc2ccccc2)cc1)c1ccco1 | inactive: 100%
COC(=O)/N=C/c1c(NCc2ccccc2)nc2c(C)cccn2c1=O | inactive: 91%
Nc1nc(-c2ccc3c(c2)CCC(=O)N3)cs1 | inconclusive: 96%
CC(C)(C)C(=O)/C=c1\s/c(=C\c2ccc(-c3ccc([N+](=O)[O-])cc3)o2)c(=O)n1CC(=O)NC(N)=O | inconclusive: 150%
CCOC(=O)C1=C(CC)Nc2ccccc2N=C1N | inconclusive: 90%
Cc1ccc(Nc2nc(N)nc(CSc3nncn3C)n2)cc1 | inconclusive: 92%
COCCCNCC(=O)Nc1sc(C)c(C)c1C(=O)OC | inconclusive: 106%
CC(=O)[C@@H]1[C@@H]2C(=O)N(c3ccc(F)c(Cl)c3)C(=O)[C@@H]2C2c3ccccc3C=CN21 (some centres undefined) | inconclusive: 103%
CCC(C)c1ccccc1NC(=O)CN1CCN(C/C=C/c2ccccc2)CC1 (centres undefined) | inconclusive: 102%
COc1ccc2cc(CN(CCO)C(=O)c3ccccc3F)c(=O)[nH]c2c1 | inconclusive: 102%
CC(C)(C)c1ccc(Oc2ccc(N)cc2)cc1 | inconclusive: 94%
Cc1cc(NC(=O)COc2ccccc2)n(-c2ccccc2)n1 | inconclusive: 103%
Cn1ccnc1Sc1nc(Nc2cccc(Cl)c2)nc(N2CCOCC2)n1 | inconclusive: 104%
O=c1[nH]c(Nc2ccc3c(c2)OCCO3)nnc1Cc1ccccc1 | inactive: 96%
CSc1ccc(/C=C(/NC(=O)c2ccc(C)cc2)C(=O)Nc2cccc(F)c2)cc1 | inactive: 101%
O=C1CCC(/C=C/c2ccccc2)=NN1Cc1ccc(F)cc1 | inconclusive: 95%
Cc1ccc(CNc2oc(-c3ccco3)nc2S(=O)(=O)c2ccccc2)cc1 | inactive: 97%
COc1c(C)cc(C(=O)C2CCCN(S(=O)(=O)c3c(C)noc3C)C2)cc1C (centres undefined) | inactive: 96%

Structure (SMILES) | GTP binding activity
COc1ccc(Cn2c(=O)c3c(nc(NCCO)n3C)n(C)c2=O)cc1 | inconclusive: 87%
CCn1cc([N+](=O)[O-])c(C(=O)Nc2ccn(Cc3ccccc3)n2)n1 | inconclusive: 101%
Cc1cc(NC(=O)CSc2nnc(N)s2)c([N+](=O)[O-])cc1C | inconclusive: 93%
COc1cc2c(cc1OC)-c1cc(NC3CCCCCC3)nc(=O)n1CC2 | active: 75%
COC(=O)c1ccc(-c2ccc(/C=N/NC(=O)CC3(C)OCCCO3)o2)cc1 | inconclusive: 94%
CN(C)c1ccnc2sc(C(=O)NCc3ccccc3)c(N)c12 | inconclusive: 90%
COc1ccc(OC)c(NS(=O)(=O)Cc2ccccc2)c1 | inconclusive: 85%
CCN(CC)C(=O)/C=C/c1ccc(OC)c(S(=O)(=O)N2CCCCC2)c1 | inactive: 99%
COc1ccccc1Nc1nc(-c2c(C)nc3ncccn23)cs1 | active: 62%
O=C1C=C(Nc2ccc(Cl)cc2)CC(c2ccccc2)C1 (centres undefined) | inactive: 100%
COc1ccc(/C=N/NC(=S)Nc2cccc(C(=O)O)c2)cc1 | inconclusive: 92%
C[C@H](C(=O)C=[N+]=[N-])N1C(=O)c2ccccc2C1=O | inconclusive: 104%
CCSc1nc2ccccc2c(=O)n1Cc1ccc(F)cc1 | inactive: 98%
O=C1C(C=NCc2ccncc2)=C(O)c2ccccc21 | inconclusive: 105%
Cc1ccc(NC(=O)/C=C\C(=O)NCC(=O)O)cc1 | inactive: 99%
COc1cc(-n2cnnn2)ccc1S(=O)(=O)N1CCOCC1 | inconclusive: 108%
COc1ccc(S(=O)(=O)N2CCN(C(=O)c3cccc(Cl)c3)CC2)cc1 | inconclusive: 104%
O=C1NC2(CCCCC2)N=C1c1ccccc1 | inconclusive: 109%
COc1ccc(CNc2nc3ccccc3n2Cc2ccccc2)cc1OC | inconclusive: 104%
COc1ccc(OC)c(Nc2nc(N)nc(-c3cc4ccccc4o3)n2)c1 | inconclusive: 94%

Structure (SMILES) | GTP binding activity
O=C1C2C3C=CC(C3)C2C(=O)N1CCN1CCN(Cc2ccc([N+](=O)[O-])cc2)CC1 (centres undefined) | inactive: 98%
CC(=O)NN1C(=O)/C(=C/c2ccc(C(C)C)cc2)SC1=S | inactive: 96%
O=C(Cn1cc(C(F)(F)F)ccc1=O)N1CCN(S(=O)(=O)c2ccccc2)CC1 | inconclusive: 103%
CCN1/C(=C/C=C/C=C/c2sc3ccccc3[n+]2CC)Sc2ccccc21 | active: 51%
Cc1ccc(CSc2nnc(-c3ccncc3)n2CC2CCCO2)cc1 (centres undefined) | inactive: 102%
CC(C)CC(=O)Nc1ccc(C(=O)Nc2cccc(O)c2)cc1 | inconclusive: 88%
CCCCOc1ccc(-c2nnn(CC(=O)c3c[nH]c4ccccc34)n2)cc1 | inconclusive: 108%
COc1ccc(CCNC(=O)NC2CCCCC2)cc1OC | inactive: 96%
CC1CN(Cc2nnc(-c3ccccc3)o2)CC(C)O1 (centres undefined) | inactive: 97%
CCCCOC(=O)c1ccc(NC(=S)NC(=O)c2c(Br)c(C)nn2C)cc1 | inconclusive: 94%
Cc1ccc(Sc2c(C)nn(C(=O)C3CC3)c2C)cc1 | inactive: 84%
Cc1ccc(NC(=O)/C(=C/c2cccc([N+](=O)[O-])c2)NC(=O)C2CCCCC2)cc1 | inconclusive: 94%
Oc1[nH]c2ccccc2c1/C=N/c1nccs1 | inconclusive: 92%
O=C(O)c1cccc(OCc2ccccc2Cl)c1 | inconclusive: 105%
CCCOc1ccc(C(=O)NNC(=S)NC(=O)c2cc(-c3ccccc3)nc3ccccc23)cc1 | inconclusive: 94%
O=C(CSc1nnc(-c2cccs2)n1-c1ccccc1)NCc1ccc2c(c1)OCO2 | inconclusive: 101%
COc1ccccc1N1CCN(CC(=O)NC(=O)NCc2ccco2)CC1 | inconclusive: 101%
COc1ccc(OC)c(C2C3=C(COC3=O)Nc3cc4c(cc32)OCO4)c1 (centres undefined) | inconclusive: 89%
Cn1c(SCC(=O)Nc2cccc(Br)c2)nnc1-c1cc2ccccc2o1 | inconclusive: 148%
